Out of some 370,000 compounds screened, about 150 (0.041%) were called active. Inconclusive results, whose numbers are uncertain, are shown with a selection of clear calls. The call rests on the fitted dose curve; in most records, active means well fitted inhibition curve with a large enough effect; inconclusive means small, poorly fitted or top-dose-only effect; inactive means flat fitted curve, though single readings scatter. Potencies of inconclusive entries are left out as doubtful fits.
Target: Beta-lactamase (Escherichia coli (strain K12)) (UniProt P00811)
Sequence of UniProt P00811 (P00811 whole entry, looked up): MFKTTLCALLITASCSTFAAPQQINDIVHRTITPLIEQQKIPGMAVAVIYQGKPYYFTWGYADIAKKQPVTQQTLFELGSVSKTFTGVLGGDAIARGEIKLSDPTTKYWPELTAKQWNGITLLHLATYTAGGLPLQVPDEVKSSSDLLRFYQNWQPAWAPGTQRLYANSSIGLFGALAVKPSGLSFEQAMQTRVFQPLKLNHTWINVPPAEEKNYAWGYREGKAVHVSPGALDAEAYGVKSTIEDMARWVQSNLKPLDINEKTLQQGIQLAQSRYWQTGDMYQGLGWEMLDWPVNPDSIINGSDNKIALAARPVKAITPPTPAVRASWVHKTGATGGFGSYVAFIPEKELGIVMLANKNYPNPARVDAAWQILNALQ
Assay: qHTS Inhibitors of AmpC Beta-Lactamase (assay with detergent); further: nearly all actives have a fitted effect of over 25% in size;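 on activity change, negative = inhibition: 0% = no-compound wells and -100% = no-enzyme wells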
Conditions: AmpC hydrolysis of nitrocefin, absorbance 480 nm, 0.01% Triton; activity change, negative = inhibition: at 114 µM (top of the series)
Summary of the method: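 AmpC (5.3 nM in the dispensed reagent) in 20 mM phosphate pH 7.0 with 0.01% (detergent screen) or 0.0001% Triton X-100 was preincubated with compounds for 15 min at room temperature. Nitrocefin was then added from an 800 uM solution, and hydrolysis was followed at 480 nm.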
Potency means the concentration at half of the fitted maximal effect; tags describe the fitted curve by direction and shape.

Row | Compound | activity change, negative = inhibition | Potency
1 | COc1cccc(/C(O)=C/c2nc3ccc(C(=O)NCCc4ccc(Cl)cc4)cc3[nH]c2=O)c1 | inactive: -1.26% | 
2 | Cc1ccc(-c2nn3c(C)nnc3s2)cc1NC(=O)c1ccc(-c2cccc(Cl)c2)o1 |  | inconclusive [inhibitor, partial curve, poor fit]
3 | O=C(Nc1ccccc1)N1N=CCC1c1ccccc1 (stereo unspecified) | inactive: -7.52% | 
4 | Cc1ccc(CNC(=O)CC(C)S(=O)(=O)c2ccc3c(c2)NC(=O)CS3)o1 (stereo unspecified) | inactive: -6.7% | 
5 | Cc1cccc(C)c1N(CC(=O)N1CCN(C)CC1)S(C)(=O)=O |  | inconclusive [inhibitor, full curve, poor fit]
6 | CCC(CC)C(=O)NC1CCSC1=O (stereo unspecified) |  | inconclusive [inhibitor, full curve, poor fit]
7 | COc1ccc(-c2cc(-c3ccccc3)nc(N3CCCC3)n2)cc1OC |  | inconclusive [inhibitor, full curve, poor fit]
8 | CC(C)c1ccc2c(c1)C(c1ccc(N3CCOCC3)cc1)=NNC(c1cccs1)=N2 |  | inconclusive [inhibitor, full curve, poor fit]
9 | Cc1cccc(-c2nc3ccccc3c3nncn23)c1 |  | inconclusive [inhibitor, full curve]
10 | Cc1ccccc1NC(=O)COC(=O)CC1CCCC1 | inactive: -10.4% | 
11 | Cc1cc(NC(=O)CSc2nnc(-c3ccc(Br)o3)n2Cc2ccccc2)no1 |  | inconclusive [inhibitor, partial curve]
12 | CS(=O)(=O)N1N=C(c2cccs2)CC1c1ccccc1O (stereo unspecified) | inactive: 1.41% | 
13 | CCn1c(SC(C)C(=O)NCC2CCCO2)nc2scc(-c3ccccc3)c2c1=O (stereo unspecified) |  | inconclusive [inhibitor, full curve, poor fit]
14 | COc1ccccc1Cn1cc(C(=O)c2ccc(C)cc2)c(=O)c2cc3c(cc21)OCCO3 | inactive: -13.8% | 
15 | COc1cc2c(=O)n(Cc3ccccc3)c(=O)n(CC(=O)NCc3ccco3)c2cc1OC |  | inconclusive [inhibitor, full curve]
16 | CN1CCc2cc3c(c4c2[C@H]1[C@H](O)c1ccccc1-4)OCO3 |  | inconclusive [inhibitor, full curve]
17 | CN(C(=O)COC(=O)c1cc(S(=O)(=O)N2CCCCC2)ccc1Cl)c1ccccc1 |  | inconclusive [inhibitor, partial curve, poor fit]
18 | Cc1cc(OCC(=O)NCCCN2CCCC2=O)c2c(C)c(C)c(=O)oc2c1 | inactive: -10.2% | 
19 | CN1CCN(c2ccc([N+](=O)[O-])cc2NC(=O)c2ccccc2)CC1 |  | inconclusive [inhibitor, single point]
20 | CN1C(=O)[C@H]2[C@@H](/C=C/c3ccccc3)N3C(=O)CN(CCO)C(=O)[C@@]3(C)[C@H]2C1=O |  | inconclusive [inhibitor, partial curve]
21 | Cc1nn(-c2ccccc2)cc1C(=S)Nc1ccccc1 |  | inconclusive [inhibitor, full curve, poor fit]
22 | Cc1sc2ncnc(SCC#N)c2c1C |  | inconclusive [inhibitor, full curve, poor fit]

Row | Compound | activity change, negative = inhibition | Potency
23 | Cn1ncc2c(Nc3ccc4ccccc4c3)ncnc21 | inactive: -0.459% | 
24 | Nc1ccc(N2CCN(CCCCN3C(=O)C4CCCN4C3=O)CC2)cc1 (stereo unspecified) |  | inconclusive [inhibitor, full curve, poor fit]
25 | CCOC(=O)N1CCN(c2c(-c3ccc(C)c(C)c3)c(=O)c2=O)CC1 |  | inconclusive [inhibitor, full curve, poor fit]
26 | CC(C)Oc1ccc(C(=O)Nc2nnc(SCC(=O)N3CCOCC3)s2)cc1 |  | inconclusive [inhibitor, full curve, poor fit]
27 | C/C(CC(=O)Nc1ccc(OCc2ccccc2)cc1)=N\NC(=O)C(=O)Nc1ccccc1C |  | inconclusive [inhibitor, full curve, poor fit]
28 | Cc1ccc(-n2nc3c(=O)n(CC(=O)NCC(C)c4ccccc4)nc(C)c3c2C)cc1 (stereo unspecified) | inactive: -6.73% | 
29 | N#Cc1c(C(F)(F)F)cc(C2CC2)[nH]c1=O |  | inconclusive [inhibitor, partial curve]
30 | COc1ccc(NC2CCCN(C(=O)CCc3cccc(Cl)c3)C2)cc1 (stereo unspecified) |  | inconclusive [inhibitor, single point]
31 | COC(=O)[C@H](Cc1ccccc1)NC(=O)c1cc(COc2c(F)cccc2F)on1 |  | inconclusive [inhibitor, full curve, poor fit]
32 | Clc1ccc(-c2nn3c(-c4cccc(Cl)c4)nnc3s2)cc1 |  | inconclusive [inhibitor, full curve, poor fit]
33 | Cc1c(C)n(C)c2ccc(C(=O)NCc3cccc(F)c3)cc12 |  | inconclusive [inhibitor, single point]
34 | CCS(=O)(=O)N1CCN(C(=O)c2cccs2)CC1 |  | inconclusive [inhibitor, full curve, poor fit]
35 | CC(C)(C)NC(=O)CSc1nc2ccccc2c(=O)[nH]1 | inactive: -0.945% | 
36 | COC(=O)CC[C@@H](C(=O)O)N1C(=O)c2ccccc2C1=O |  | inconclusive [inhibitor, full curve, poor fit]
37 | O=C(O)CSc1c2c(nc3cc(C(=O)N4CCOCC4)ccc13)CCCC2 |  | inconclusive [inhibitor, full curve, poor fit]
38 | CCOc1ccc(-c2nc(=S)[nH][nH]2)cc1 | inactive: -18.6% | 
39 | CCCCCn1c(C(Cc2ccccc2)NC(=O)COC)nc2ccccc21 (stereo unspecified) |  | inconclusive [inhibitor, full curve]
40 | C/C=C/CSc1nc2c(c(=O)[nH]c(=O)n2C)n1Cc1ccc(C)cc1 |  | inconclusive [inhibitor, full curve, poor fit]
41 | CC(C)CC(C)c1cc(N)nc2nc3ccccc3n12 (stereo unspecified) |  | inconclusive [inhibitor, full curve]
42 | CCN(CC)CCCn1c2c(c(SCC(=O)Nc3ccc(F)c(F)c3)nc1=O)CCC2 | inactive: -7.93% | 
43 | COC(=O)C1=C(C)NC(=O)CC1c1ccc(F)c(Br)c1 (stereo unspecified) |  | inconclusive [inhibitor, full curve]
44 | COc1ccc(C2CC2/C(=N/O)c2ccccc2)cc1 (stereo unspecified) |  | inconclusive [inhibitor, full curve, poor fit]

Row | Compound | activity change, negative = inhibition | Potency
45 | Cc1ccc(NC(=O)COC(=O)c2ccccc2Cl)cc1S(=O)(=O)N(C)C |  | inconclusive [inhibitor, full curve, poor fit]
46 | Cc1cc(C)nc(NS(=O)(=O)c2ccc(Br)cc2)n1 |  | inconclusive [inhibitor, single point]
47 | CCOc1ccc(NC(N)=O)cc1 |  | inconclusive [inhibitor, full curve]
48 | COc1ccccc1C(=O)Nc1ccnn1C1CCN(Cc2cn(C)c3ccccc23)CC1 |  | inconclusive [inhibitor, partial curve, poor fit]
49 | CCc1nc2c3cnn(-c4cc(Cl)ccc4C)c3ncn2n1 |  | inconclusive [inhibitor, full curve]
50 | Cc1ccc(NC(=O)c2ccc3c(c2)N(CC(=O)N2CCCCC2)C(=O)C(C)(C)O3)cc1 | inactive: 0.238% | 
51 | CCN(Cc1ccccc1)C(=O)Cn1c(=O)n(CC(=O)NCc2ccco2)c(=O)c2sccc21 |  | inconclusive [inhibitor, partial curve, poor fit]
52 | C/C=C(/C)C(=O)OC1c2c(ccc3ccc(=O)oc23)OC(C)(C)C1OC(C)=O (stereo unspecified) |  | inconclusive [inhibitor, full curve]
53 | CCOc1c(C)cnc2c1c(=O)n(Cc1ccccc1F)c(=O)n2C | inactive: -8.99% | 
54 | O=C(NNC(=S)NC(=O)c1ccccc1[N+](=O)[O-])c1ccccc1Cl |  | inconclusive [inhibitor, full curve]
55 | O=C(COc1ccc2c3c(c(=O)oc2c1)CCCC3)NCCCn1ccnc1 |  | inconclusive [inhibitor, full curve, poor fit]
56 | CC(=O)N1CCN=C1SCc1ccccc1Cl |  | inconclusive [inhibitor, full curve]
57 | O=C(Nc1ccccc1C(=O)NCc1ccco1)NC1CCCCC1 |  | inconclusive [inhibitor, partial curve, poor fit]
58 | O=C(Nc1nnc(-c2ccc(Br)cc2)o1)c1ccco1 |  | inconclusive [inhibitor, partial curve, poor fit]
59 | O=C(c1cc2nc(-c3ccco3)cc(C(F)(F)F)n2n1)N1CCCc2ccccc21 | inactive: -8.35% | 
60 | O=C(NCCc1nc2ccccc2[nH]1)c1ccc(Cl)c([N+](=O)[O-])c1 |  | inconclusive [inhibitor, full curve, poor fit]
61 | O=C(CSc1nc2[nH]ncc2c(=O)[nH]1)Nc1ccccc1 | inactive: 0.118% | 
62 | O=C(CCc1c[nH]c2ccccc12)N1CCN(S(=O)(=O)c2ccc(F)cc2)CC1 |  | inconclusive [inhibitor, full curve, poor fit]
63 | C=C(C)CN(CC)C(=O)CN1C(=O)NC2(CCc3ccccc32)C1=O (stereo unspecified) | inactive: 5.24% | 
64 | CCCCCCN=C(C)c1c(O)n(CCCC)c(=O)[nH]c1=O |  | inconclusive [inhibitor, full curve, poor fit]
65 | CCN(CC)c1ccc(NC(=O)c2ccccc2)cc1S(=O)(=O)Nc1ccccc1OC | inactive: 7.76% | 
66 | CC(C(=O)N1CCCCC1)N1C(=O)c2ccccc2C1=O (stereo unspecified) |  | inconclusive [inhibitor, full curve, poor fit]

From PubChem BioAssay AID485294 (National Center for Advancing Translational Sciences (NCATS), 2010)
